Reference: PMC4336329 (PLoS ONE, 2015)
Hit rate of the full screen: of about 310,000 compounds, about 14,000 (4.5%) showed an effect of 50% or more. Effects have a minus sign here. Some of the results follow.

Biological target: human ether-à-go-go-related gene (hERG) potassium channel (human, UniProt Q12809)
Assay: primary screen, population patch clamp on CHO cells stably expressing hERG
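Note: peak tail current of the secondary pulse compared with the same well before compound.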

Sequence of human ether-à-go-go-related gene (hERG) potassium channel (Q12809 whole entry, looked up): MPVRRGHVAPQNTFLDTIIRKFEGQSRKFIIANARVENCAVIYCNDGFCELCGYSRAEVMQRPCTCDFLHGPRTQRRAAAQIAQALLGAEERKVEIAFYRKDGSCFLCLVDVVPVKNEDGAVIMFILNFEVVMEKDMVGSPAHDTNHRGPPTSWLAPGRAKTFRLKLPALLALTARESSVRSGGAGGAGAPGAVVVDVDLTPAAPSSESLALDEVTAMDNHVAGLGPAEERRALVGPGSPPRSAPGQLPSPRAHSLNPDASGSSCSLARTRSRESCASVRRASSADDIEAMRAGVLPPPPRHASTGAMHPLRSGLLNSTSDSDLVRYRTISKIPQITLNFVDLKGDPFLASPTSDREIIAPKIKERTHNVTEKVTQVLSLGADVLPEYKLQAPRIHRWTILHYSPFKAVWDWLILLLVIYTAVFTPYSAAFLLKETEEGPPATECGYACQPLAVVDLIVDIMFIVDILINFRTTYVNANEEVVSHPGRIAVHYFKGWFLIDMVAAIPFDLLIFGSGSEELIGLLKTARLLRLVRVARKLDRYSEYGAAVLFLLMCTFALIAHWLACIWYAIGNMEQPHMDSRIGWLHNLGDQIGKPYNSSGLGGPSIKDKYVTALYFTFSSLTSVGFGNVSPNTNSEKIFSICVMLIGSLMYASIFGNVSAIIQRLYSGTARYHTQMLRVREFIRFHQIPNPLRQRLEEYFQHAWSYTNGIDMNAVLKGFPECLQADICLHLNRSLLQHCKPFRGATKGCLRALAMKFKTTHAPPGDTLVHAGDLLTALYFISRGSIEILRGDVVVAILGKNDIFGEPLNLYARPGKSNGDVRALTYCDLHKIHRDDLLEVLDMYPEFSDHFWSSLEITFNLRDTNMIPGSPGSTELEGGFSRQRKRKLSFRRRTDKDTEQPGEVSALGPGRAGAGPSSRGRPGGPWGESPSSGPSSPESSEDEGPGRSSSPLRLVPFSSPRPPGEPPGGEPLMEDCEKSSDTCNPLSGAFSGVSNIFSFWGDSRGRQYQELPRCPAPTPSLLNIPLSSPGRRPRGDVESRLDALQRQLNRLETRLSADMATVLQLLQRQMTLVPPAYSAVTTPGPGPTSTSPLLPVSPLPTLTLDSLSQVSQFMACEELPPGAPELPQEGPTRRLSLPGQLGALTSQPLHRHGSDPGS

SMILES | hERG current change (%, negative = inhibition) at 10uM [%]
Cc1cc(C)cc(OCC(=O)OCC(=O)NCCC2=CCCCC2)c1 | 8.61
CCc1cc(CC)c(/C=N/NC(N)=O)c(CC)c1 | 7.35
O=c1c2ccccc2nc(-c2ccccc2)n1CCCN1CCOCC1 | -20.4
Cc1ccc(CN2C(=O)CSC(C)C2=O)cc1 (stereo not shown) | 5.73
CCCCN(C(=O)Cc1ccc2c(c1)OCCO2)c1c(N)n(CCC)c(=O)[nH]c1=O | 12.8
CN(CC(=O)Nc1ccc(Cl)cc1F)C1CCS(=O)(=O)C1 (stereo not shown) | -20.6
CC/C(=C/c1sc2ccc(C)cc2[n+]1CCO)SC.COS(=O)(=O)[O-] | 18.8
CCCOc1cccc(-c2cc(C(=O)N/N=C/c3cccnc3)c3ccccc3n2)c1 | -6.32
O=C(c1ccccn1)N1CCN(S(=O)(=O)c2ccc3ccccc3c2)CC1 | -25.4
Cc1c(O)nc(SCC(=O)Nc2ccc3c4c(cccc24)CC3)n(-c2ccccc2)c1=O | 3.98
CC(C)CCNc1nc(N)c([N+](=O)[O-])c(NCCO)n1 | 4.26
Cc1cc2oc3ccc(NCCC4CCCN4C)cc3c(=O)c2cc1C (stereo not shown) | -38.7
CC(=O)c1cn(C(=O)c2ccc(Cl)cc2)c2ccccc12 | 20.5
Cc1ccc(C)c(NC(=O)CCc2ccc(C)o2)c1 | 7.43
COC(=O)CCN(C(=O)c1ccc(N2CCCC2)c([N+](=O)[O-])c1)c1ccccn1 | 11
C=C(C)CSc1nc2sc3c(c2c(=O)n1-c1ccc(OC)cc1)CCN(C)C3 | 11.9
Cc1onc(-c2ccccc2Cl)c1C(=O)OCC(=O)c1ccc[nH]1 | -18.7
O=C(CSc1n[nH]c(-c2ccccn2)n1)Nc1ccccc1F | -1.74
COc1ccc(CCC(=O)NNC(=O)c2cc(Cl)ccc2OC)cc1 | -3.63
O=C1C2C(c3ccccc3)CC=CC2[C@H](c2ccoc2)N1Cc1ccccc1 (stereo partly shown) | -42.9
COc1ccc(/C=C/C(=O)NC2CCCCC2C)cc1 (stereo not shown) | 7.99
O=C(CSc1nc(O)cc(=O)[nH]1)N1c2ccccc2CCc2ccccc21 | -3.03

SMILES | hERG current change (%, negative = inhibition) at 10uM [%]
CCCCCNC(=O)c1cn(CC)c2cc(N3CCN(C)CC3)c(F)cc2c1=O | -15.8
Cn1c(-c2ccc3c(c2)OCO3)cnc1NC(=O)CCC(=O)NCCc1ccccc1 | -6.98
Cc1cc(C)c2c(c1)/C(=N/NC(=O)c1cc(C)oc1C)CCC2 | 6.66
Cc1ccc(-n2nnnc2SCC(=O)Nc2ccc3c(c2)COC3=O)cc1C | 13.5
O=C(NCc1ccccc1OC(F)(F)F)C1CCC(=O)N(C2CC2)C1 (stereo not shown) | 4.55
O=C(Nc1ccc(S(=O)(=O)NC2=NCCCCC2)cc1)c1ccc(C(F)(F)F)cc1 | -25
Cc1cc(OCC(=O)NC(Cc2ccc(Cl)cc2)C(=O)O)c2c3c(c(=O)oc2c1)CCC3 (stereo not shown) | 15.4
CCC(C)CCN1C(N(C)C)=NC[C@@H]1Cc1ccccc1 (stereo partly shown) | -22.5
CC1CC2=C(CC1/C=N/NC(N)=S)C(C)(C)CCC2 (stereo not shown) | 1.92
COc1cc(C2CC(=O)c3c([nH]c(C(=O)OCCOC(C)C)c3C)C2)cc(OC)c1OC (stereo not shown) | -4.72
CCOC(=O)c1nn(-c2ccccc2)c(=O)cc1OCC(=O)Nc1ccccc1OCC | -8.25
Cc1ccc(N2C(=O)c3ccc(C(=O)N4CCOCC4)cc3C2=O)cc1C | -0.618
N#CC1=C2SCN(c3ccc(F)cc3)CN2C(=O)CC1c1cccc(F)c1 (stereo not shown) | 14.1
O=C(CCCN1C(=O)/C(=C\c2cccs2)SC1=S)Nc1ccc(C(=O)O)cc1 | 8.37
CCOC(=O)c1cc(CC)sc1NC(=O)COc1ccc2c(C)cc(=O)oc2c1 | 3.4
CC(C)OCCCNC(=O)c1c(N)n(Cc2cccs2)c2nc3ccccc3nc12 | -0.278
O=C(NCc1ccc(Cl)cc1)c1ccc(-c2ccccc2C(F)(F)F)o1 | 2.94
CCCc1cc(=O)[nH]c(Nc2ccc3c(c2)OCCO3)n1 | 23.8
COc1ccc2c(c1OC)C(=O)N1C2SC[C@H]1C(=O)NC1CCCCC1 (stereo partly shown) | -4.96
C#Cc1ccc(CN2CCC(N3CCC(C(=O)NCc4ccccn4)CC3)CC2)cc1 | -72.2
Cc1ccc(S(=O)(=O)/N=S(\C)CC2CC2(Cl)Cl)cc1 (stereo not shown) | 21.8
CCc1nnc(NC(=O)C(C)Sc2ccccc2)s1 (stereo not shown) | -13

SMILES | hERG current change (%, negative = inhibition) at 10uM [%]
CCOC(=O)c1cc2c(ccn2-c2ccc(F)cc2)n1CC(=O)N1CCN(C(=O)c2ccco2)CC1 | -26.1
O=C(Nc1ccc(S(=O)(=O)NCc2ccccc2)cc1)c1ccccc1[N+](=O)[O-] | 2.69
CC(=NCc1cccnc1)c1c(O)n(-c2ccc(Cl)cc2)c(=O)[nH]c1=O | 9.17
O=C(Cc1ccccc1)OCC(=O)c1ccccc1 | -3.19
O=C(OCc1csc(-c2ccccc2)n1)c1ccccc1O | 29.6
Cc1ccc(NC(=O)c2ccccc2-c2cc(C)no2)cc1 | -15.7
Cc1ccc(N2CC(C(=O)Nc3ccccc3C(=O)N3CCOCC3)CC2=O)cc1 (stereo not shown) | 14.9
COc1ccccc1Cn1c(=S)[nH]c2ccc(F)cc2c1=O | 17.6
Cc1csc(NC(=O)c2ccoc2C)n1 | -7.66
CC(C)(C)c1ccc(S(=O)(=O)N2CCCC2C(=O)NC2=NCCS2)cc1 (stereo not shown) | 2.21
Cc1nc(NCCc2ccc(S(N)(=O)=O)cc2)c2c3c(sc2n1)CCC3 | 8.64
Cc1ccc(CNC(=O)c2ccc(S(=O)(=O)Nc3c(C)n(C)n(-c4ccccc4)c3=O)cc2)cc1 | -26.6
Cc1[nH]c2ccccc2c1/C=N\NC(=O)c1ccco1 | 11.1
COc1ccc(CCNC(=O)COC(=O)c2ccc[nH]c2=O)cc1 | -0.656
O=C(OCc1cn(-c2ccc(Cl)cc2)nn1)c1ccccc1 | -2.52
CCOCCc1nnc(NC(=O)C(C)Oc2ccccc2)s1 (stereo not shown) | 8.79
O=C(CSc1nnnn1C1CCCC1)NCc1ccccc1 | -9.3
Cc1c(Cl)cccc1NC(=O)c1cc(-c2ccccc2O)n[nH]1 | -16.8
O=C1CC(c2ccccc2F)c2c(c3ccccc3[nH]c2=O)O1 (stereo not shown) | 22
O=C(CN1C(=O)CCC1=O)Nc1nc2c(F)cc(F)cc2s1 | -14.3
CCc1nn(CCCC(=O)Nc2ccc(C)c(C)c2)c(=O)c2cc3occc3n12 | 4.15
O=C(NCc1ccco1)c1nnc(Cc2ccc(Cl)cc2)o1 | -10.8

SMILES | hERG current change (%, negative = inhibition) at 10uM [%]
CC1(C)C2CCC(C2)C1(C)NC(=O)CNC1CCCCC1.Cl (stereo not shown) | 26.2
CCOc1ccc(/C=N/Nc2ccc(C(F)(F)F)cc2[N+](=O)[O-])cc1O | 9.74
Cc1ccc(C(=O)Oc2ccccc2N2C(=O)C3CCCCC3C2=O)cc1 (stereo not shown) | -14
C=CCOC(=O)C(C#N)c1nc2ccccc2nc1N1CCCC1 (stereo not shown) | 3.62
O=C(NNS(=O)(=O)c1ccccc1[N+](=O)[O-])c1ccncc1 | 10.5
Cc1ccc2nc(-c3ccncc3)cc(C(=O)N3CCOCC3)c2c1 | 0.929
CCNc1nc(CN2CCOCC2)nc2sc3c(c12)CCC3 | -7.54
CCOc1ccccc1N1CCN(C(=S)NCc2ccccc2)CC1 | 3.62
O=C(COC(=O)Cc1cccc(C(F)(F)F)c1)NCC1CCCO1 (stereo not shown) | 1.46
O=C(N/N=C1\C(=O)c2cccc3cccc1c23)c1ccc(O)cc1 | 8.35
COC(=O)c1[nH]nc(C(=O)OC(C)(C)C)c1-c1ccccc1 | -3.47
S=C(Nc1ccccc1)Nc1ccccc1Br | 10.3
CCn1nc(C)c([N+](=O)[O-])c1C(=O)NNC(=O)c1ccccc1Cl | 10.9
Cc1nc2ccccc2c(=O)n1NC(=O)c1ccc(Cl)c(Cl)c1 | 5.63
Cc1cc(NS(=O)(=O)c2ccc(Nc3nc(-c4ccc(C)c(C)c4)cs3)cc2)no1.Cl | -5.46
CC(C)c1ccc(N(CC(=O)NC2CCCC2)C(=O)CCC(=O)Nc2nccs2)cc1 | 18.4
O=C(O)C1CC=CCC1C(=O)NC12CC3CC(CC(C3)C1)C2 (stereo not shown) | 3.51
Cc1ccc(C(C)C)c(OCC(=O)OCC(=O)NC2CCS(=O)(=O)C2)c1 (stereo not shown) | 0.333
COc1ccc(C(=O)c2oc3ccc(OC)cc3c2N)cc1 | 9.31
FC(F)(F)C1=CC(c2ccccc2)=NCCN1 | 3.86
Cc1ccc(CNC(=O)C2CCN(S(=O)(=O)c3ccc4c(c3)OCCCO4)CC2)cc1 | 2.16
CC(=O)c1ccc(NC(=O)NC2CC(=O)N(c3ccc4c(c3)OCCO4)C2)cc1 (stereo not shown) | 6.57
